7 molecules from patent publication US20240269278A1, “ANTI-CD47 ANTIBODY FOR COMBINED TREATMENT OF BLOOD TUMOR” (Nanjing Shunxin Pharmaceuticals Co., Ltd. of Chiatai …, priority 2021, published 2024) can be followed below.

The labels stand for the following.
B1: hz3F10-4.1: humanized anti-CD47 antibody, heavy chain SEQ ID NO: 121, light chain SEQ ID NO: 123 (antibody)
heavy: QVQLVQSGAEVKKPGSSVKVSCKASGYTFSRYWIEWVRQAPGQGLEWMGEFIPGSDTTNYAQKFQGRVTITADISTSTAYMELSSLRSEDTAVYYCARGGLRRMDYWGQGTLVTVSSASTKGPSVFPLAPCSRSTSESTAALGCLVKDYFPEPVTVSWNSGALTSGVHTFPAVLQSSGLYSLSSVVTVPSSSLGTKTYTCNVDHKPSNTKVDKRV[omitted - human IgG4 Fc with S228P (EU numbers)]
light: DIQMTQSPSSLSASVGDRVTITCRASSSVSSTYLHWYQQKPGKAPKLLIYTTSTLASGVPSRFSGSGSGTSYTLTISSLQPEDFATYYCQQFSESTWTFGQGTKLEIKRTVAAPSVFIFPPSDEQLKSGTASVVCLLNNFYPREAKVQWKVDNALQSGNSQESVTEQDSKDSTYSLSSTLTLSKADYEKHKVYACEVTHQGLSSPVTKSFNRGEC
modifications: heavy chain; light chain
B2: hz3F10-1.2: humanized anti-CD47 antibody, heavy chain SEQ ID NO: 133, light chain SEQ ID NO: 135 (antibody)
heavy: B1 heavy with D73E, S77N
light: B1 light with S71D, Y72F, E94D
modifications: heavy chain; light chain
B3: hz3F10-5.1: humanized anti-CD47 antibody, heavy chain SEQ ID NO: 125, light chain SEQ ID NO: 127 (antibody)
heavy: B1 heavy
light: B1 light with L48W, E94D
modifications: heavy chain; light chain
B4: hz16E5-1.2: humanized anti-CD47 antibody, heavy chain SEQ ID NO: 165, light chain SEQ ID NO: 167 (antibody)
heavy: QVQLVQSGAEVKKPGASVKVSCKASGYTFTNYGMNWVRQAPGQGLKWMGWINTNTGEPTYAQELQGRVTMTLDTSTRTAYMELRSLRSDDTAVYYCARFSHLRGPMDYWGQGTLVTVSSASTKGPSVFPLAPCSRSTSESTAALGCLVKDYFPEPVTVSWNSGALTSGVHTFPAVLQSSGLYSLSSVVTVPSSSLGTKTYTCNVDHKPSNTKVDKRV[omitted - human IgG4 Fc with S228P (EU numbers)]
light: DIQMTQSPSSLSASVGDRVTITCRSSQSLVHSNGYTYLHWYQQKPGKAPKLLIYKVSNRFSGVPSRFSGSGSGTDFTLTISSLQPEDFATYYCSQSTHVPPTFGQGTKLEIKRTVAAPSVFIFPPSDEQLKSGTASVVCLLNNFYPREAKVQWKVDNALQSGNSQESVTEQDSKDSTYSLSSTLTLSKADYEKHKVYACEVTHQGLSSPVTKSFNRGEC
modifications: heavy chain; light chain
B5: hz16E5-3.3: humanized anti-CD47 antibody, heavy chain SEQ ID NO: 177, light chain SEQ ID NO: 179 (antibody)
heavy: B4 heavy with A97T
light: B4 light with I2A
modifications: heavy chain; light chain
B6: hz16E5-1.3: humanized anti-CD47 antibody, heavy chain SEQ ID NO: 161, light chain SEQ ID NO: 163 (antibody)
heavy: B4 heavy with A97T
light: B4 light
modifications: heavy chain; light chain
B7: hz16E5-3.2: humanized anti-CD47 antibody, heavy chain SEQ ID NO: 169, light chain SEQ ID NO: 171 (antibody)
heavy: B4 heavy
light: B4 light with I2A
modifications: heavy chain; light chain

Residue numbers refer to the chain shown, from its start.

Test system in one data set: not listed separately
Nature of the data set: Thermostability assay based on Nano DSF (Prometheus NT.48). The class given is physicochemical.
Conditions: not given
As for the experimental part:
The high-throughput protein stability analyzer Prometheus NT.48 is an instrument for acquiring various types of data such as protein molecular structure stability, aggregation stability, and colloid dispersion stability. The melting temperatures (Tm) and the aggregation temperatures (Tagg) of the anti-CD47 chimeric antibodies and the anti-CD47 humanized antibodies were determined using this instrument.
Regarding B1, the “Tagg (aggregation temperature)” value worked out at 62.54 °C and the “Tm (melting temperature)” value is 68.35 °C.
For the molecule B2, the “Tagg (aggregation temperature)” value was 61.92 °C and the “Tm (melting temperature)” value is 68.71 °C.
Turning to B3, the “Tagg (aggregation temperature)” value turned out to be 62.12 °C and the “Tm (melting temperature)” value was 68.05 °C.
In the case of B4, the “Tagg (aggregation temperature)” value was 61.90 °C and the “Tm (melting temperature)” value is 69.54 °C.
For the molecule B5, the “Tagg (aggregation temperature)” value worked out at 73.81 °C and the “Tm (melting temperature)” value came to 68.72 °C.
Regarding B6, the “Tagg (aggregation temperature)” value was 73.77 °C and the “Tm (melting temperature)” value came to 68.90 °C.
On the same counts, the results for B7 are 61.44 °C and 69.10 °C.

Another data set relates to HL60 cells. Nature of the data set: Promotion of macrophage phagocytosis of tumor cells (flow cytometry). The class given is cell-based, human. As to conditions: 1 μg/mL antibody, CFSE-labeled HL60 cells, human macrophages. As to the method:
The ability of the anti-CD47 antibodies to promote the phagocytosis of tumor cells by macrophages having SIRPα on the cell surface was determined based on flow cytometry.
Monocytes were isolated from human peripheral blood mononuclear cells (PBMC, Sailybio, Cat. No. 190056) using a monocyte isolation kit ([…], Cat. No. 19058), plated into a 24-well plate (Greiner bio-one, Cat. No. 662-160) at […] cells per well, and induced under 100 ng/mL stimulating factor M-CSF (R&D Systems, Cat. No. 216-MC-010) for 7 days to form macrophages. 1×10^6 target cells HL60 (Shanghai Institute of Biochemistry and Cell Biology, Chinese Academy of Sciences, Cat. No. TCHu23) were suspended in […] CFSE (BD Biosciences, Cat. No. 565082) fluorescent dye (diluted with a PBS buffer to the desired concentration), incubated in a water bath at 37° C. in the dark for 15 min, and washed with a PBS buffer to prepare CFSE-labeled HL60 cells, which were then incubated with each of 10 μg/mL and 1 μg/mL anti-CD47 antibodies (see Table 3 for chimenic antibodies, and see Table 4 for humanized antibodies) in an incubator at 37° C. with 5% CO2 for 1-2 h. The HL60 cells after the incubation were washed three times with a PBS buffer and added to the macrophages. The cells were incubated in an incubator at 37° C. with 5% CO2 for 2-4 h. After the cells were washed three times with a PBS buffer, a mixture of 1260 μL of PBS, 20 μL of anti-APC-CD14 (APC MouseAnti-Human CD14, BD Biosciences, Cat. No. 555399), and 20 μL of PE-CD11b (PE Mouse Anti-Human CD11b/1Mac-1, BD Biosciences, Cat. No. 555388) antibody was added to each well. The cells were incubated at 4° C. in the dark for 30 min, washed three times with a PBS buffer, and digested with trypsin (Gibco, Cat. No. 12604-013). The rate of phagocytosis (%) by the macrophages was determined using a flow cytometer (BD Biosciences, model: C6).
On the technique in general: A flow cytometer gives signals particle by particle.
Consider B1, for which the rate of phagocytosis was determined as 50.26%.
For the molecule B2, the rate of phagocytosis came out at 55.52%.
Take B3: the rate of phagocytosis turned out to be 50.45%.
B4 yielded a rate of phagocytosis of 5.1%.
On the same count and under the same terms, the result for B5 reads 11.62%; that for B6, 3.03%.
B7 returned a rate of phagocytosis of 3.02%.

The same data set, now with this note: 10 μg/mL antibody, CFSE-labeled HL60 cells, human macrophages.
In turn, B1 displayed a rate of phagocytosis of 58.26%.
For B2, the rate of phagocytosis turned out to be 38.86%.
B3 had a rate of phagocytosis of 58.46%.
As to B4, the rate of phagocytosis is listed as 17.83%.
Regarding B5, the rate of phagocytosis was found to be 4.7%.
The molecule B6 displayed a rate of phagocytosis of 4.33%.
Molecule B7 yielded a rate of phagocytosis of 2.03%.
